Some of the results follow.
Molecular target: T1, MBP-FoxP1dN (Mus musculus, UniProt P58462 326-579)
T1 sequence: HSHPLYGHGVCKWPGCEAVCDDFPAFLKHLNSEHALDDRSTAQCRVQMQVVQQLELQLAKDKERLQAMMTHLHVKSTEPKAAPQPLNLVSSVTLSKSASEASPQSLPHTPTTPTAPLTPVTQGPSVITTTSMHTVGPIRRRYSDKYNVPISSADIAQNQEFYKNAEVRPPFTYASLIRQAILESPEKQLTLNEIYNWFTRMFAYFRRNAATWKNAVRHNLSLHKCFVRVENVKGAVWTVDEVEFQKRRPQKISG
Experiment: PD-seq (MBP pull-down with sequencing); 20 mM Tris-HCl pH 7.5, 100 mM NaCl, 1.5 mM MgCl2, 0.4 uM protein, 0.1 uM dsDNA library, 30 min, room temperature, amylose pull-down; high values mean tight binding
Settings: protein: recombinant; tags: His6-MBP; chain copies: 2; dsDNA, one strand shown
Procedure, shortened: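 Amylose resin was used to capture complexes formed during 30 min at room temperature in Tris pH 7.5 buffer with NaCl and MgCl2 between 0.4 µM His6-MBP-tagged mouse FoxP3 or FoxP1 fragment lacking the N-terminus, expressed in E. coli, and 0.1 µM Klenow-filled double-stranded degenerate DNA library. After three washes, the DNA was released with proteinase K, barcoded by PCR and sequenced on Illumina. Binding is pooled-replicate reads-per-million enrichment, pull-down over input.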

Sequence | binding signal
GATGATTGTTCTCCCAGCTGATGAATTGACTATTTCGAGTAAACAAATTTTCCTAATCTTTCTGTTCAAGCGCCATCTAC | 1.19 RPM ratio (pull-down/input)
GATGATTGTTCTCCCAGCTGATGAATTATGGTGATCGAGTAAACAAATTTTCCTAATCTTTCTGTTCAAGCGCCATCTAC | 1.03 RPM ratio (pull-down/input)
GATGATTGTTCTCCCAGCTGATGAATTGAATTCCTCGAGTAAACAAATTTTCCTAATCTTTCTGTTCAAGCGCCATCTAC | 0.804 RPM ratio (pull-down/input)
GATGATTGTTCTCCCAGCTGATGAATTATGTGAATCGAGTAAACAAATTTTCCTAATCTTTCTGTTCAAGCGCCATCTAC | 1.14 RPM ratio (pull-down/input)
GATGATTGTTCTCCCAGCTGATGAATTCGTTACGTCGAGTAAACAAATTTTCCTAATCTTTCTGTTCAAGCGCCATCTAC | 1.03 RPM ratio (pull-down/input)
GATGATTGTTCTCCCAGCTGATGAATTGGGCGTGTCGAGTAAACAAATTTTCCTAATCTTTCTGTTCAAGCGCCATCTAC | 0.85 RPM ratio (pull-down/input)
GATGATTGTTCTCCCAGCTGATGAATTCCCCTCTTCGAGTAAACAAATTTTCCTAATCTTTCTGTTCAAGCGCCATCTAC | 0.821 RPM ratio (pull-down/input)
GATGATTGTTCTCCCAGCTGATGAATTCATAGCTTCGAGTAAACAAATTTTCCTAATCTTTCTGTTCAAGCGCCATCTAC | 0.837 RPM ratio (pull-down/input)
GATGATTGTTCTCCCAGCTGATGAATTCAATTGCTCGAGTAAACAAATTTTCCTAATCTTTCTGTTCAAGCGCCATCTAC | 0.952 RPM ratio (pull-down/input)
GATGATTGTTCTCCCAGCTGATGAATTCCAAGACTCGAGTAAACAAATTTTCCTAATCTTTCTGTTCAAGCGCCATCTAC | 0.757 RPM ratio (pull-down/input)
GATGATTGTTCTCCCAGCTGATGAATTCGTAACATCGAGTAAACAAATTTTCCTAATCTTTCTGTTCAAGCGCCATCTAC | 1.13 RPM ratio (pull-down/input)
GATGATTGTTCTCCCAGCTGATGAATTTCGGTCTTCGAGTAAACAAATTTTCCTAATCTTTCTGTTCAAGCGCCATCTAC | 0.868 RPM ratio (pull-down/input)
GATGATTGTTCTCCCAGCTGATGAATTGAGATTCTCGAGTAAACAAATTTTCCTAATCTTTCTGTTCAAGCGCCATCTAC | 0.714 RPM ratio (pull-down/input)
GATGATTGTTCTCCCAGCTGATGAATTGTCTGCGTCGAGTAAACAAATTTTCCTAATCTTTCTGTTCAAGCGCCATCTAC | 1.06 RPM ratio (pull-down/input)
GATGATTGTTCTCCCAGCTGATGAATTCGAGAGGTCGAGTAAACAAATTTTCCTAATCTTTCTGTTCAAGCGCCATCTAC | 0.698 RPM ratio (pull-down/input)
GATGATTGTTCTCCCAGCTGATGAATTGTGTCACTCGAGTAAACAAATTTTCCTAATCTTTCTGTTCAAGCGCCATCTAC | 1.18 RPM ratio (pull-down/input)

Sequence | binding signal
GATGATTGTTCTCCCAGCTGATGAATTAATGCGGTCGAGTAAACAAATTTTCCTAATCTTTCTGTTCAAGCGCCATCTAC | 1.2 RPM ratio (pull-down/input)
GATGATTGTTCTCCCAGCTGATGAATTGCTTGTGTCGAGTAAACAAATTTTCCTAATCTTTCTGTTCAAGCGCCATCTAC | 1.33 RPM ratio (pull-down/input)
GATGATTGTTCTCCCAGCTGATGAATTCAGCACCTCGAGTAAACAAATTTTCCTAATCTTTCTGTTCAAGCGCCATCTAC | 0.855 RPM ratio (pull-down/input)
GATGATTGTTCTCCCAGCTGATGAATTCTTACTTTCGAGTAAACAAATTTTCCTAATCTTTCTGTTCAAGCGCCATCTAC | 0.935 RPM ratio (pull-down/input)
GATGATTGTTCTCCCAGCTGATGAATTAAGAGATTCGAGTAAACAAATTTTCCTAATCTTTCTGTTCAAGCGCCATCTAC | 0.921 RPM ratio (pull-down/input)
GATGATTGTTCTCCCAGCTGATGAATTCATCCCATCGAGTAAACAAATTTTCCTAATCTTTCTGTTCAAGCGCCATCTAC | 0.935 RPM ratio (pull-down/input)
GATGATTGTTCTCCCAGCTGATGAATTCATCATATCGAGTAAACAAATTTTCCTAATCTTTCTGTTCAAGCGCCATCTAC | 1.08 RPM ratio (pull-down/input)
GATGATTGTTCTCCCAGCTGATGAATTGTGTGAATCGAGTAAACAAATTTTCCTAATCTTTCTGTTCAAGCGCCATCTAC | 1.08 RPM ratio (pull-down/input)
GATGATTGTTCTCCCAGCTGATGAATTACCATCCTCGAGTAAACAAATTTTCCTAATCTTTCTGTTCAAGCGCCATCTAC | 0.917 RPM ratio (pull-down/input)
GATGATTGTTCTCCCAGCTGATGAATTCAAATGGTCGAGTAAACAAATTTTCCTAATCTTTCTGTTCAAGCGCCATCTAC | 0.889 RPM ratio (pull-down/input)
GATGATTGTTCTCCCAGCTGATGAATTGCTAAATTCGAGTAAACAAATTTTCCTAATCTTTCTGTTCAAGCGCCATCTAC | 1.33 RPM ratio (pull-down/input)
GATGATTGTTCTCCCAGCTGATGAATTATGCCTGTCGAGTAAACAAATTTTCCTAATCTTTCTGTTCAAGCGCCATCTAC | 0.97 RPM ratio (pull-down/input)
GATGATTGTTCTCCCAGCTGATGAATTTTAGTACTCGAGTAAACAAATTTTCCTAATCTTTCTGTTCAAGCGCCATCTAC | 0.868 RPM ratio (pull-down/input)
GATGATTGTTCTCCCAGCTGATGAATTCAAGGCATCGAGTAAACAAATTTTCCTAATCTTTCTGTTCAAGCGCCATCTAC | 1.06 RPM ratio (pull-down/input)
GATGATTGTTCTCCCAGCTGATGAATTAATGGCGTCGAGTAAACAAATTTTCCTAATCTTTCTGTTCAAGCGCCATCTAC | 1.04 RPM ratio (pull-down/input)
GATGATTGTTCTCCCAGCTGATGAATTCGGCGTGTCGAGTAAACAAATTTTCCTAATCTTTCTGTTCAAGCGCCATCTAC | 0.891 RPM ratio (pull-down/input)

From PMC12820563, “FoxP3 forms a head-to-head dimer in vivo and stabilizes its multimerization on adjacent microsatellites”
